Some of the results follow. Sequences were assembled here from the parent chain. Inactive controls read about 0.05.
B1: TEV protease; numbered along this chain (parent)
chain: MGESLFKGPRDYNPISSSICHLTNESDGHTTSLYGIGFGPFIITNKHLFRRNNGTLVVQSLHGVFKVKDTTTLQQHLVDGRDMIIIRMPKDFPPFPQKLKFREPQREERICLVTTNFQTKSMSSMVSDTSCTFPSGDGIFWKHWIQTKDGQCGSPLVSTRDGFIVGIHSASNFTNTNNYFTSVPKNFMELLTNQEAQQWVSGWRLNADSVLWGGHKVFMVKPEEPFQPVKEATQL

Variants of: B1
Experiment: raw area under fraction-flipped curve 0-4 h after induction (AUC4h, not background-subtracted), DNA-recorder readout of cleavage of the substrate (dimensionless); higher = more cleavage of the substrate by the protease variant
Settings: temperature: 34 °C; time window: 0-4 h after rhamnose induction
Experimental: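 In vivo DNA recorder in E. coli TOP10(DE3) ΔrhaA at 34 °C. Each TEVp single-site mutant (parent TEVp 0) is paired with a single-site variant of the 7-mer TEVs (canonical ENLYFQ|S). The substrate sits between flexible linkers in a Bxb1-sfGFP-TEVs-SsrA fusion, so cleavage stabilises Bxb1 and speeds flipping of a recombination array, read by NGS. The value is the raw area under the fraction-flipped curve over 0-4 h after rhamnose induction (AUC4h), with ≥20 reads per time point. It is not background-subtracted; inactive controls average about 0.047.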
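Further: Bxb1 expression induced with 0.2% (w/v) L-rhamnose at OD600 near 0.5, cultures sampled hourly, flipped fraction per protease–substrate barcode pair counted by paired-end Illumina sequencing.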

Variant | area with substrate EALYFQS | area with substrate ECLYFQS | area with substrate EDLYFQS | area with substrate EELYFQS | area with substrate EFLYFQS | area with substrate EGLYFQS | area with substrate EHLYFQS | area with substrate EILYFQS | area with substrate EKLYFQS | area with substrate ELLYFQS | area with substrate EPLYFQS | area with substrate EQLYFQS | area with substrate ERLYFQS | area with substrate ESLYFQS | area with substrate ETLYFQS | area with substrate EVLYFQS | area with substrate EWLYFQS | area with substrate EYLYFQS | area with substrate EMLYFQS
MGESLFKGPRDYNPISWSICHLTNESDGHTTSLYGIGFGPFIITNKHLFRRNNGTLVVQSLHGVFKVKDTTTLQQHLVDGRDMIIIRMPKDFPPFPQKLKFREPQREERICLVTTNFQTKSMSSMVSDTSCTFPSGDGIFWKHWIQTKDGQCGSPLVSTRDGFIVGIHSASNFTNTNNYFTSVPKNFMELLTNQEAQQWVSGWRLNADSVLWGGHKVFMVKPEEPFQPVKEATQL [S17W] | 0.129 | 0.0998 | 0.117 | 0.12 | 0.0686 | 0.1 | 0.131 | 0.0942 | 0.112 | 0.12 | 0.0982 | 0.11 | 0.123 | 0.0877 | 0.101 | 0.0871 | 0.0688 | 0.119 | 
MGESLFKGPRDYNPISSSICHLTNESDGHTTSLYGIGFGPFIITNKHLFRRNNGTLVVQSLHGVFKVKDTTTLQQHLVDGRDMIIIRMPKDFPPFPQKLKFREPQREERICLVTTNFQTKSMSSMVSDTSCTFPSHDGIFWKHWIQTKDGQCGSPLVSTRDGFIVGIHSASNFTNTNNYFTSVPKNFMELLTNQEAQQWVSGWRLNADSVLWGGHKVFMVKPEEPFQPVKEATQL [G136H] | 0.112 | 0.0899 | 0.136 |  | 0.117 | 0.103 |  | 0.103 | 0.104 |  | 0.147 | 0.124 | 0.125 | 0.106 |  | 0.111 | 0.0971 |  | 
MGESLFKGPRDYNPISSSICHLTNESDGHTTSLYGIGFGPFIITNKHLFRRNNGTLVVQSLHGVFKVKDTTTLQQHLVDGRDMIIIRMPKDFPPFPQKLKFREPQREERICLVTTNFQTKSMSSMVSDTSCTFPSLDGIFWKHWIQTKDGQCGSPLVSTRDGFIVGIHSASNFTNTNNYFTSVPKNFMELLTNQEAQQWVSGWRLNADSVLWGGHKVFMVKPEEPFQPVKEATQL [G136L] | 0.128 | 0.097 | 0.135 | 0.121 | 0.114 | 0.1 | 0.124 |  | 0.0625 | 0.0933 | 0.112 |  | 0.108 | 0.105 | 0.109 | 0.0959 | 0.0956 | 0.106 | 0.113
MGESLFKGPRDYNPISSSICHLTNESDGHTTSLYGIGFGPFIITNKHLFRRNNGTLVVQSLHGVFKVKDTTTLQQHLVDGRDMIIIRWPKDFPPFPQKLKFREPQREERICLVTTNFQTKSMSSMVSDTSCTFPSGDGIFWKHWIQTKDGQCGSPLVSTRDGFIVGIHSASNFTNTNNYFTSVPKNFMELLTNQEAQQWVSGWRLNADSVLWGGHKVFMVKPEEPFQPVKEATQL [M88W] | 0.071 | 0.0883 | 0.0841 |  |  |  |  | 0.0898 | 0.0761 | 0.11 | 0.0694 | 0.0984 | 0.0767 | 0.0907 |  |  |  | 0.0796 | 
MGESLFKGPRDYNPISSSICHLTNESDGHTTSLYGIGFGPFIITNKHLFRRWNGTLVVQSLHGVFKVKDTTTLQQHLVDGRDMIIIRMPKDFPPFPQKLKFREPQREERICLVTTNFQTKSMSSMVSDTSCTFPSGDGIFWKHWIQTKDGQCGSPLVSTRDGFIVGIHSASNFTNTNNYFTSVPKNFMELLTNQEAQQWVSGWRLNADSVLWGGHKVFMVKPEEPFQPVKEATQL [N52W] | 0.063 | 0.0688 | 0.0809 | 0.0755 | 0.0664 | 0.0779 | 0.0699 | 0.0578 | 0.0662 | 0.0652 | 0.0819 | 0.0962 | 0.0283 | 0.0708 | 0.0665 | 0.076 | 0.0611 | 0.0632 | 0.0698
MGESLFKGPRDYWPISSSICHLTNESDGHTTSLYGIGFGPFIITNKHLFRRNNGTLVVQSLHGVFKVKDTTTLQQHLVDGRDMIIIRMPKDFPPFPQKLKFREPQREERICLVTTNFQTKSMSSMVSDTSCTFPSGDGIFWKHWIQTKDGQCGSPLVSTRDGFIVGIHSASNFTNTNNYFTSVPKNFMELLTNQEAQQWVSGWRLNADSVLWGGHKVFMVKPEEPFQPVKEATQL [N13W] | 0.113 | 0.0857 | 0.0941 | 0.115 | 0.072 | 0.0972 | 0.0944 | 0.0789 | 0.0842 | 0.079 | 0.0981 | 0.109 | 0.0909 | 0.0818 | 0.0807 | 0.0863 | 0.0742 |  | 0.13
MGESLFKGPRDYNPISSSICHLTNESDGHTTSLYGIGFGPFIITNKHLFRRNNGTLVVQSLHGVFKVKDTTTLQQHLVDGRDMIIIRMPKDFPPFPQKLKFREPQREERICLVTTNFQTKSMSSMVSNTSCTFPSGDGIFWKHWIQTKDGQCGSPLVSTRDGFIVGIHSASNFTNTNNYFTSVPKNFMELLTNQEAQQWVSGWRLNADSVLWGGHKVFMVKPEEPFQPVKEATQL [D128N] | 0.162 | 0.12 | 0.169 | 0.141 |  |  | 0.131 | 0.103 | 0.159 | 0.118 |  | 0.145 | 0.134 | 0.135 | 0.143 | 0.0991 | 0.107 | 0.111 | 0.12
MGESLFKGPRDYNPISSSICHLTNESDGHTTSLYGIGFGPFIITNKHLFRRNNGTLVVQSLHGVFKVKDTTTLQQHLVDGRDMIIIRMPKDFPPFPQKLKFREPQREERICLVTTNFQTKSMSSMVSETSCTFPSGDGIFWKHWIQTKDGQCGSPLVSTRDGFIVGIHSASNFTNTNNYFTSVPKNFMELLTNQEAQQWVSGWRLNADSVLWGGHKVFMVKPEEPFQPVKEATQL [D128E] | 0.112 |  |  |  |  | 0.0916 |  | 0.0694 | 0.13 | 0.0803 | 0.114 | 0.224 | 0.0793 | 0.087 | 0.113 | 0.0855 | 0.0944 |  | 0.16

— the supplement of paper PMC12217912
